Reference: the supplement of paper PMC3334620
Whole data set: some 33,000 sequences, median “E-score (-0.5 to 0.5)” near -0.041, cut for the highest 2% near 0.37. The list shows a part of the results.

Target: T1, Ecm22 (UniProt Q05958)
T1 sequence: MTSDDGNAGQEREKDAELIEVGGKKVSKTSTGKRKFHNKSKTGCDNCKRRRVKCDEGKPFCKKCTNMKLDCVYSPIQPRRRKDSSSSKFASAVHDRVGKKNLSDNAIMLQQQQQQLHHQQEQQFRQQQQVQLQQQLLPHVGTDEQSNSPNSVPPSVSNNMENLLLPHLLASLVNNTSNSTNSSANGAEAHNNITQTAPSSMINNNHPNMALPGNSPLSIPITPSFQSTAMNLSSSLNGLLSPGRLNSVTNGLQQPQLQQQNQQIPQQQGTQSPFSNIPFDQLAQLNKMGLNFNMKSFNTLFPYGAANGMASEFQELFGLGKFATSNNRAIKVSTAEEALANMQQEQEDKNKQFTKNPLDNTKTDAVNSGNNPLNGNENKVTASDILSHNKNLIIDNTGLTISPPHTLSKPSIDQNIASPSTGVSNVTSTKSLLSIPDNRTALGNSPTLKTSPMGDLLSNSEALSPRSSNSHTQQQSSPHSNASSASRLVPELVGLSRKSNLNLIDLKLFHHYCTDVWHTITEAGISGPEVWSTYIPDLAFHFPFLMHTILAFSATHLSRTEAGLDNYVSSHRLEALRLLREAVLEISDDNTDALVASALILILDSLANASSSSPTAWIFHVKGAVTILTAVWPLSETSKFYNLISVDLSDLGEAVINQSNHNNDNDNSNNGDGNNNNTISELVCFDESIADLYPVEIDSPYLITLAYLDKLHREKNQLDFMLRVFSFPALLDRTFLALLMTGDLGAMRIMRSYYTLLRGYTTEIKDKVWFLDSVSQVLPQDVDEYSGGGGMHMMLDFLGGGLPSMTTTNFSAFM
Assay: PBM E-score (8-mer binding enrichment) (E-score (-0.5 to 0.5)); higher = stronger / more preferred TF binding; most listed sequences are background and not binding sites
Conditions: protein concentration: 200 nM; construct: GST-full length
How it was run: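 Bound GST-tagged yeast transcription factors, applied at about 100-200 nM to double-stranded universal all-10-mer Agilent arrays, were detected with fluorescent anti-GST. Scans were normalised with masliner. A modified Wilcoxon-Mann-Whitney statistic, the E-score, was assigned to each ungapped eight-base word pooled with its reverse complement by the Universal PBM Analysis Suite.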

| Sequence | PBM E-score |
| --- | --- |
| GAAAGCCC | 0.0946 |
| AGTCTATG | -0.308 |
| CTGCGGTC | -0.0324 |
| TATGACGA | 0.124 |
| ATCAAGCA | 0.105 |
| CCAGTATA | -0.0943 |
| ATCCATAG | -0.156 |
| CCTTAAAA | -0.226 |
| GGCTGGTA | -0.158 |
| AGTTGTGC | 0.136 |
| AGGTGCAG | -0.235 |
| CCATCGGG | 0.0772 |
| CCGATTCC | -0.00271 |
| ATACTGGC | -0.211 |
| GAATTCTC | 0.204 |
| AGAGCCCA | -0.15 |
| AACGTGGT | 0.0471 |
| GATCCACC | -0.149 |
| AGCTTATG | -0.0352 |
| CTGGCAAG | -0.302 |
| CAGTAGAG | -0.141 |
| ATTATCTC | 0.0827 |
| AGAGCCGG | -0.129 |
| CGGTTCGA | 0.268 |
| TAAGGAAA | -0.0904 |

| Sequence | PBM E-score |
| --- | --- |
| ATTGTTAC | 0.0823 |
| GGTGCAAC | 0.0204 |
| GAGTCGGA | 0.0868 |
| CACGACCG | 0.0498 |
| AGGACGCG | -0.0792 |
| ACGCCGAG | 0.159 |
| AGCTCGCG | 0.249 |
| AAAAGACG | -0.0186 |
| ACAAGTTA | -0.0302 |
| ACGTCTGC | -0.158 |
| ATTGCACG | 0.146 |
| CTCCCTGC | -0.278 |
| GAGGACGA | 0.167 |
| ACACCTCG | 0.169 |
| TGATGAAA | -0.103 |
| GCAGGAAA | -0.0907 |
| CTCAGTTA | -0.187 |
| CCGGTAGC | -0.261 |
| AATTAGTA | 0.0162 |
| AGTCTCTA | -0.0503 |
| CGAAGAAC | 0.135 |
| CGGTCGAG | 0.132 |
| GTGCGAGA | 0.248 |
| CTCTCTCC | -0.127 |
| CCCTATGA | -0.194 |

| Sequence | PBM E-score |
| --- | --- |
| CCATTGCG | -0.109 |
| CTCATTAA | -0.231 |
| TCATTGGA | -0.0702 |
| AAGGCACT | -0.111 |
| TGAGACAA | -0.105 |
| GAACCATA | -0.0553 |
| CCTTGAAA | -0.0768 |
| ATGCGGTG | -0.176 |
| ATAAGCAA | -0.0928 |
| TGAGTACA | -0.0329 |
| AACACTAT | 0.129 |
| AGTGTCAC | -0.0644 |
| CCGTGCAA | 0.0357 |
| AGAGTAAG | -0.271 |
| GGATGACC | -0.138 |
| AGCAGCAC | -0.12 |
| TACAACTA | -0.103 |
| ATGAAACA | 0.0589 |
| CTGCTGAA | -0.183 |
| AGGGGTCG | -0.0111 |
| CTGTCGTC | 0.161 |
| GACCAGCC | -0.173 |
| CAGCGTTC | -0.025 |
| GCATGGAA | -0.0545 |
| AATGTATA | 0.244 |

| Sequence | PBM E-score |
| --- | --- |
| ACGTGACA | 0.183 |
| ACTACTCT | -0.173 |
| GACCGAGC | 0.27 |
| ACTGGACA | -0.105 |
| GTCCGTCA | -0.131 |
| AGCGTCTA | -0.273 |
| ACACCGAA | 0.061 |
| AGAAACCT | -0.26 |
| AAAATGGA | -0.00366 |
| CTTCAAAA | -0.206 |
| CAGTCAGC | -0.199 |
| CATGTACG | 0.399 |
| GAATCGAA | 0.11 |
| ACTCAATA | -0.0603 |
| GCTTTATA | -0.0972 |
| GACCGACA | 0.237 |
| GCAATAAC | -0.0825 |
| ATAGTATA | 0.211 |
| AATCGTAC | 0.458 |
| AATAGGAC | -0.0712 |
| GTGAGAAA | -0.105 |
| CCGCCAAC | -0.163 |
| CCACGGGG | -0.209 |
| AAAGAGTT | -0.264 |
| AAACAACC | -0.0595 |

| Sequence | PBM E-score |
| --- | --- |
| GTTAGAAA | -0.127 |
| GCCGTACA | 0.371 |
| CCCGCATA | 0.169 |
| AGAGAGGA | -0.19 |
| CTTAAGCA | -0.191 |
| ATTTCTGC | 0.178 |
| AGCCAATG | -0.141 |
| ACCGTTAG | -0.0284 |
| CCTATTAA | -0.0475 |
| AATATGAC | 0.0385 |
| ACTCGTGG | -0.114 |
| CTCTCAGA | -0.235 |
| CAGATAAC | -0.159 |
| GAGGAGGA | -0.00253 |
| CCCTGCCG | -0.219 |
| AATTATTG | -0.0942 |
| ACCGGTAA | -0.0467 |
| GTGTCGTA | 0.445 |
| CCCGGACA | -0.00282 |
| TAACGTAA | 0.151 |
| ATCCAGCC | -0.107 |
| CTTATGTA | -0.00821 |
| ACACGCGA | 0.191 |
| TAGATTCA | 0.061 |
| CAACTAGC | -0.0218 |

| Sequence | PBM E-score |
| --- | --- |
| GTGCGTCA | -0.239 |
| CTTTTAAC | 0.053 |
| GGTACGCA | 0.263 |
| GTGCCGTA | 0.33 |
| CGGACAGA | 0.218 |
| CCGAACTA | -0.0209 |
| CACGAGAC | 0.0819 |
| ATTCAGAG | -0.0403 |
| GTCGGTCA | 0.258 |
| ACGCCTAG | -0.107 |
| CGGGTCAC | 0.16 |
| AAACGGTT | 0.262 |
| CGTATCAG | 0.338 |
| AGAATCGA | -0.00414 |
| AAAGTCCG | -0.00499 |
| ACCTCCAT | -0.0854 |
| CCCGTTCG | 0.196 |
| AGACTGAA | -0.19 |
| AACTTGGT | 0.0861 |
| AAAAAGCA | -0.0954 |
| GAGTTCAC | 0.0701 |
| TACCAATA | 0.0209 |
| AAAGGATG | 0.00531 |
| AAAGTCAC | 0.0189 |
| CCACATAG | -0.14 |

| Sequence | PBM E-score |
| --- | --- |
| TCACTACA | -0.0736 |
| CCCCCTAA | -0.094 |
| CTTAGCGC | 0.0883 |
| CAGTAAGG | -0.211 |
| AAACGAAT | 0.453 |
| AGAACGAC | 0.425 |
| ACCGTGCT | -0.228 |
| GGACCGCC | -0.107 |
| TCGGATCA | 0.217 |
| CTCCTGAC | -0.315 |
| CGCTCGAC | -0.0268 |
| AGTATTGG | -0.139 |
| CAGGTATG | -0.0672 |
| AAACGTAA | 0.194 |
| ATATCACA | -0.196 |
| CACGGGTA | -0.0789 |
| CAAGGGAC | -0.255 |
| AGATGGTA | -0.0824 |
| AGCGTCTG | -0.165 |
| ACCCTTAG | -0.253 |
| ATCGTTCC | 0.478 |
| TATTCAGA | 0.00759 |
